Measurements taken from the supplement of paper PMC12217912.
This is one part of the list. The full chains were built here from the parent and the listed change. Values near 0.05 are background.

B1: TEV protease; numbered along this chain (parent)
chain: MGESLFKGPRDYNPISSSICHLTNESDGHTTSLYGIGFGPFIITNKHLFRRNNGTLVVQSLHGVFKVKDTTTLQQHLVDGRDMIIIRMPKDFPPFPQKLKFREPQREERICLVTTNFQTKSMSSMVSDTSCTFPSGDGIFWKHWIQTKDGQCGSPLVSTRDGFIVGIHSASNFTNTNNYFTSVPKNFMELLTNQEAQQWVSGWRLNADSVLWGGHKVFMVKPEEPFQPVKEATQL

Variants of: B1
Experiment: raw area under fraction-flipped curve 0-4 h after induction (AUC4h, not background-subtracted), DNA-recorder readout of cleavage of the substrate (dimensionless); higher = more cleavage of the substrate by the protease variant
Settings: temperature: 34 °C; time window: 0-4 h after rhamnose induction
Method: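 In vivo DNA recorder in E. coli TOP10(DE3) ΔrhaA at 34 °C. Each TEVp single-site mutant (parent TEVp 0) is paired with a single-site variant of the 7-mer TEVs (canonical ENLYFQ|S). The substrate sits between flexible linkers in a Bxb1-sfGFP-TEVs-SsrA fusion, so cleavage stabilises Bxb1 and speeds flipping of a recombination array, read by NGS. The value is the raw area under the fraction-flipped curve over 0-4 h after rhamnose induction (AUC4h), with ≥20 reads per time point. It is not background-subtracted; inactive controls average about 0.047.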
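Also: Bxb1 expression induced with 0.2% (w/v) L-rhamnose at OD600 near 0.5, cultures sampled hourly, flipped fraction per protease–substrate barcode pair counted by paired-end Illumina sequencing.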

Variant | area with substrate ECLYFQS | area with substrate EDLYFQS | area with substrate EELYFQS | area with substrate EGLYFQS | area with substrate EILYFQS | area with substrate EKLYFQS | area with substrate ELLYFQS | area with substrate EPLYFQS | area with substrate ESLYFQS | area with substrate ETLYFQS | area with substrate EVLYFQS | area with substrate EWLYFQS | area with substrate EYLYFQS | area with substrate ERLYFQS | area with substrate EHLYFQS | area with substrate EQLYFQS | area with substrate EFLYFQS | area with substrate EMLYFQS
W212K | 0.0684 | 0.0765 | 0.0675 | 0.0355 | 0.065 | 0.0581 | 0.0526 | 0.0845 | 0.0675 | 0.0621 | 0.0655 | 0.0688 | 0.0602 |  |  |  |  | 
W199H | 0.0485 |  |  |  | 0.0728 |  |  | 0.0506 | 0.0626 |  | 0.058 | 0.0594 | 0.0606 | 0.0625 |  |  |  | 
W203Y | 0.092 | 0.0993 | 0.118 |  | 0.0753 | 0.0938 | 0.0906 | 0.0931 | 0.0891 |  | 0.0709 | 0.11 |  | 0.0674 | 0.0986 | 0.0945 |  | 
F187I | 0.103 | 0.115 | 0.127 | 0.0973 | 0.0897 | 0.113 | 0.0677 |  | 0.0949 |  | 0.097 | 0.101 |  | 0.0906 | 0.104 | 0.144 | 0.0989 | 0.121
F187Q | 0.0645 |  | 0.0931 | 0.0627 | 0.0642 | 0.0761 | 0.0667 | 0.074 | 0.053 |  | 0.071 | 0.0633 |  | 0.075 |  | 0.0738 | 0.0625 | 
F218P | 0.0649 | 0.0562 | 0.0845 |  | 0.0469 | 0.056 | 0.0576 | 0.0738 | 0.0842 |  | 0.0796 | 0.0715 | 0.0551 |  | 0.041 | 0.0639 |  | 0.0554
T233G | 0.112 | 0.114 | 0.12 |  | 0.122 |  | 0.0947 | 0.0942 | 0.109 | 0.103 | 0.0876 | 0.131 |  | 0.0892 |  |  |  | 0.113
T233K | 0.162 |  |  | 0.105 | 0.108 | 0.123 |  | 0.1 | 0.156 | 0.126 | 0.108 |  |  | 0.0476 | 0.118 | 0.119 | 0.104 | 
E224F | 0.108 |  | 0.113 | 0.0879 |  | 0.11 | 0.0734 |  | 0.0777 | 0.0768 |  | 0.0959 |  |  | 0.0894 |  |  | 0.106
S201K | 0.109 |  | 0.123 |  | 0.111 |  | 0.0096 |  | 0.0993 |  |  |  |  | 0.0907 |  |  |  | 
P225I | 0.0581 | 0.121 | 0.0921 |  | 0.102 | 0.107 |  | 0.125 | 0.105 | 0.112 | 0.0782 |  |  | 0.0078 |  | 0.105 |  | 
N206G | 0.0888 |  |  | 0.0841 | 0.0884 |  | 0.0815 |  | 0.122 |  | 0.0993 |  | 0.0982 | 0.114 |  |  |  | 0.111
N175F | 0.0628 | 0.0876 | 0.0902 | 0.11 | 0.0853 | 0.0724 | 0.0984 | 0.0753 | 0.0789 |  | 0.0683 | 0.0696 |  | 0.0789 | 0.0742 | 0.0779 |  | 0.0637
F65W |  | 0.0665 | 0.113 |  | 0.0893 | 0.0967 | 0.0727 | 0.107 | 0.0897 |  | 0.104 | 0.0938 | 0.149 | 0.103 |  | 0.118 |  | 0.1
F180L | 0.101 |  |  |  |  |  |  |  | 0.15 | 0.126 | 0.078 |  |  |  |  | 0.175 |  | 0.129
